Paper PMC4336329 (PLoS ONE, 2015)
The campaign covered roughly 310,000 compounds. About 2,200 (0.71%) showed an effect of 50% or more. The effect is printed as a negative number. The list shows a part of the results.

The compounds below were run against human ether-à-go-go-related gene (hERG) potassium channel (human, UniProt Q12809) (assay: primary screen, population patch clamp on CHO cells stably expressing hERG).
Sequence of human ether-à-go-go-related gene (hERG) potassium channel (Q12809 whole entry, looked up): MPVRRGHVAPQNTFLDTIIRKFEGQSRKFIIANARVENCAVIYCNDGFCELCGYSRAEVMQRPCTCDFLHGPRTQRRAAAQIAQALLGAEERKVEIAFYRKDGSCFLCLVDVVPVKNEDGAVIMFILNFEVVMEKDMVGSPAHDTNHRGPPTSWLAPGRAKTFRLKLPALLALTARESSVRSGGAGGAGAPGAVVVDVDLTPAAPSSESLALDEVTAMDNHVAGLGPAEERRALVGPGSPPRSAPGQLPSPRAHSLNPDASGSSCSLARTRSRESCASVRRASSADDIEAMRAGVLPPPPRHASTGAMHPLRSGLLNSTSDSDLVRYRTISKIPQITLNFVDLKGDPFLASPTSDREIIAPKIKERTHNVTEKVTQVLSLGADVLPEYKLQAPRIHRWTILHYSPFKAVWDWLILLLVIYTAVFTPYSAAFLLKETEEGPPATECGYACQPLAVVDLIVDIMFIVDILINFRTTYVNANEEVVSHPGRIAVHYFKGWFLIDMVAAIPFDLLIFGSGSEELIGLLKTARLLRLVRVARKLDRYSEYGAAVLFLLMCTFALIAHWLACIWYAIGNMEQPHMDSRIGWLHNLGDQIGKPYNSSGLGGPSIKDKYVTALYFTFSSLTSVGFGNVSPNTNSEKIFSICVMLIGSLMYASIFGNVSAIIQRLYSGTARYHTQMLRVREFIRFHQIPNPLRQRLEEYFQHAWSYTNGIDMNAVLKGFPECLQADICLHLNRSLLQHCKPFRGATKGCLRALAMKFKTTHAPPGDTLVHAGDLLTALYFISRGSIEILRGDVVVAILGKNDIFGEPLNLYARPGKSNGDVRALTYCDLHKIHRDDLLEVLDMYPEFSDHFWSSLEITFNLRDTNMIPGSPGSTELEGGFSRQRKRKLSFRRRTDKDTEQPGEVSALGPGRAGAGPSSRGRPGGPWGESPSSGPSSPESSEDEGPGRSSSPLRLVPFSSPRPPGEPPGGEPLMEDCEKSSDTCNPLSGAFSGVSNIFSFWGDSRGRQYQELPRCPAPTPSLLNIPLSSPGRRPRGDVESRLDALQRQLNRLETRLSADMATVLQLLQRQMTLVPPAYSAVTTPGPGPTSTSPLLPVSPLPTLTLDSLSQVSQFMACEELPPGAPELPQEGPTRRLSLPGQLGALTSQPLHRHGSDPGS

Row | SMILES | hERG current change (%, negative = inhibition) at 1uM [%]
1 | O=C1C2C3C=CC(C2C(=O)N1C1CCCCC1)C1C(=O)N(C2CCCCC2)C(=O)C31 (stereo not shown) | 11
2 | CNS(=O)(=O)c1ccc(N=Cc2c(O)n(-c3cccc(C)c3)c(=O)[nH]c2=O)cc1 | 11.5
3 | CCOC(=O)c1ccc(NC(=O)N2CCN(c3ccccn3)CC2)cc1 | -9.14
4 | O=C(CN1CCOCC1)Nc1ccc([N+](=O)[O-])cc1 | 9.44
5 | NC(=O)CSc1nccn1Cc1ccccc1 | 5.35
6 | COC(=O)c1cc(NC2c3ncccc3C(=O)N2Cc2ccccc2)cc(C(=O)OC)c1 (stereo not shown) | -1.73
7 | NC(=O)COC(=O)CN1C(=O)C2CCCCC2C1=O (stereo not shown) | 13.8
8 | COc1ccc(CN2CC3CC(C2)c2cccc(=O)n2C3)cc1OC (stereo not shown) | 3.62
9 | COc1ccc(S(=O)(=O)N(C)CC(=O)N2CCN(Cc3ccccc3)CC2)cc1C | -13.9
10 | COc1cccc(NC(=O)c2ccnc(N3CCC(C(=O)NCc4cc(OC)ccc4OC)CC3)c2)c1 | 18.2
11 | Cn1c(=O)c2c(nc(SCc3nc(N)nc(N4CCCCC4)n3)n2C)n(C)c1=O | 8.75
12 | Fc1ccccc1N1CCN(CC2CC3C=CC2C3)CC1 (stereo not shown) | 12.5
13 | Cc1cccc(Nc2nnc(SCC(=O)NCc3cccs3)s2)c1 | 23
14 | CNC(=O)CN(c1ccc(C(C)C)cc1)S(C)(=O)=O | 9.52
15 | CNS(=O)(=O)c1cccc(C(=O)OCC(=O)Nc2sc3c(c2C#N)CCCCC3)c1 | 8.36
16 | Cc1ccc(-n2ncc3c(NNC(=O)c4ccco4)ncnc32)cc1C | 5.2
17 | O=[N+]([O-])c1ccc(Cl)c(NC(=S)N2CCCC2)c1 | 14.3
18 | CCOC(=O)C1CCCN(S(=O)(=O)c2c(C)[nH]c(C)c2C(=O)N2CCCC2)C1 (stereo not shown) | 13.6
19 | O=C(N[C@@H](Cc1ccccc1)C(=O)N1CCC2(CC1)NCCc1[nH]cnc12)c1cccc(Br)c1 | 17
20 | CN(C)S(=O)(=O)c1cccc(-c2nn(-c3ccccc3)cc2/C=C(\C#N)c2nc3ccccc3[nH]2)c1 | 13.4
21 | O=C([O-])CCC/C=C\C[C@@H]1[C@@H](/C=C/[C@@H](O)COc2cccc(Cl)c2)[C@H](O)C[C@@H]1O.[Na+] | 10.2
22 | CC(C)CCNC(=O)C1CCN(c2nnc(-n3cccc3)s2)CC1 | 7.93

Row | SMILES | hERG current change (%, negative = inhibition) at 1uM [%]
23 | COC(=O)C1=C(c2ccc(-c3ccccc3)c(F)c2)C[C@@H]2CC[C@H]1N2C(=O)NCCO | 14
24 | CCOC(=O)N1CCC(NC(=O)c2ccc3c(c2)N=C(C)c2c(C)ccc(C)c2S3)CC1 | 21
25 | Cc1ccc(CNC(=O)CN2c3cccc4cccc(c34)S2(=O)=O)cc1 | 9.8
26 | O=C(COc1ccc(Cl)cc1)NCCCNC(=O)c1ccncc1 | -5.27
27 | Cc1noc(C)c1C(=O)N1CCC(Cc2ccccc2)CC1 | 8.93
28 | O=C(C1=C[C@H](C2CCCCC2)C[C@H](OCc2ccc(CO)cc2)O1)N1CCN(Cc2ccccc2)CC1 | 5.06
29 | CCN(CC)S(=O)(=O)c1ccc2c(c1)c(=O)c(C(=O)NCc1ccco1)cn2C | 12.4
30 | Cc1nc2ccccc2c2oc(C(=O)NCCCN3CCCC3=O)cc12 | 5.57
31 | O=C(O)c1ccc(NS(=O)(=O)c2ccc(Cl)c(C(=O)Nc3ccccc3[N+](=O)[O-])c2)cc1 | 12.1
32 | Cc1ccc(S(=O)(=O)NCCC(=O)N2CCC(C)CC2)cc1 | 3.1
33 | O=C1C(=O)N(CCCN2CCOCC2)C(c2ccc(Cl)cc2)/C1=C(/O)c1ccc(F)cc1 (stereo not shown) | 16.8
34 | CCOc1ccc(NC(=O)CCS(=O)(=O)c2ccc(Br)cc2)cc1 | 3.24
35 | CC(C)c1ccccc1OCCNC(=O)c1cccnc1 | 10.5
36 | COc1ccccc1NC(=O)CCCN1C(=O)C2CC=CCC2C1=O (stereo not shown) | 13.5
37 | O=C(O)c1cccc(S(=O)(=O)N2CCC(n3nnc4cc(C(F)(F)F)ccc43)CC2)c1 | 16.9
38 | CCOC(=O)c1c(C)n(C(C)C)c2ccc(OC(=O)c3ccc(N4C(=O)CCC4=O)cc3)cc12 | 10.5
39 | O=C(OCC#CCSc1nc2ccccc2o1)c1cc2ccccc2o1 | 15.7
40 | COc1ccc(-c2noc(COc3ccc4c(c3)OCO4)n2)cc1 | 13.8
41 | CC1CCN(CCCCOc2cccc(C(C)C)c2)CC1.O=C(O)C(=O)O | -10
42 | COc1ccc2cc(C(=O)NCc3ccccc3CN3CCCC3)ccc2c1 | -22.2
43 | COc1ccc(C)cc1-n1c(SCC(=O)Nc2cccc(C(=O)O)c2)nc2ccccc2c1=O | 16.5
